From paper PMC7819943, “Rice protein-binding microarrays: a tool to detect cis-acting elements near promoter regions in rice”
The other results are listed elsewhere or left out.

The sequences below were run against T1, OsWOX13 (Oryza sativa, UniProt Q5QMM3 1-267) (assay: protein-binding microarray (RPBM); PBS, 2% BSA, 51.3 ng/ul salmon testes DNA, 50 uM zinc acetate, 200 nM TF, 25 C, 1 h; high values mean tight binding). Details: protein: recombinant; tags: N-terminal polyhistidine and DsRed monomer fusion (pET32a); label: CyDye5-dUTP incorporated in the synthesized complementary strand; 3' TTTTT single-stranded linker to array surface; dsDNA, one strand shown.
T1 sequence: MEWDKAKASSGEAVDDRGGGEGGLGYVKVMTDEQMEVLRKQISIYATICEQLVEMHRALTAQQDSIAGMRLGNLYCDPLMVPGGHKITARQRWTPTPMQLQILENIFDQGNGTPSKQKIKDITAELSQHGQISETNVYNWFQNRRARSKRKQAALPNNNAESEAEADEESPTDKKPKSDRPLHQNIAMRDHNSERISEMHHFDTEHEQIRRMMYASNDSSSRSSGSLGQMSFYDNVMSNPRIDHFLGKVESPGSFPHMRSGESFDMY
Summary of the method: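 Transcription factors were each fused at the N-terminus to a polyhistidine tag plus DsRed and expressed in E. coli BL21-CodonPlus before Ni–NTA purification. Binding to a double-stranded custom Agilent array was carried out with 200 nM protein at 25 °C for 1 h in PBS, 2% BSA, salmon testes DNA and 50 µM zinc acetate. The binding signal is per-feature fluorescence intensity, in arbitrary units, on an Axon 4000B scanner.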

Row | Sequence | binding signal
1 | ACTCTGATGCACAAATTGCTAAACTATGCAGAATCTGACTCGGAGTCACCTAGTGCAG | 4160 fluorescence intensity (a.u.)
2 | ATTGTGTGAAGGAAGATGATTGGATGCTGATTTATAGATGCGGAGTCACCTAGTGCAG | 19800 fluorescence intensity (a.u.)
3 | TTGGATAATTGATAAATAGAATAGTAGCAAATACTTAAATCGGAGTCACCTAGTGCAG | 28900 fluorescence intensity (a.u.)
4 | AAGAGACCGGAAATCAATCCATTAGTCAATAGGTGTGAAACGGAGTCACCTAGTGCAG | 3800 fluorescence intensity (a.u.)
5 | TTTCAATCGCGTAAAATGACCATTCCTATTTCTCCCTAACCGGAGTCACCTAGTGCAG | 3220 fluorescence intensity (a.u.)
6 | TTGCATTAATAATTAACCCAATCTGCAGACTGCAGTGCAGCGGAGTCACCTAGTGCAG | 7050 fluorescence intensity (a.u.)
7 | ATGAAAATTGACAAACATTAGCCATTAGTATAAACATTTTCGGAGTCACCTAGTGCAG | 10200 fluorescence intensity (a.u.)
8 | TTAAGATTGATTTTAAATATATTTTAAGCAAACAATTTTACGGAGTCACCTAGTGCAG | 21500 fluorescence intensity (a.u.)
9 | ATAATTAATGTAGCAAGAGAAAATGTATGCATGCTAAGGTCGGAGTCACCTAGTGCAG | 5240 fluorescence intensity (a.u.)
10 | AAATAATTAAGAAATTATAAAAGAAGTCTGGGCATGCTAGCGGAGTCACCTAGTGCAG | 14100 fluorescence intensity (a.u.)
11 | CTCTTTCTAATCAACTGTAACCCTACAGTTGTTTTGTTCTCGGAGTCACCTAGTGCAG | 3370 fluorescence intensity (a.u.)
12 | GTTTCAATGATTGGTTGTTCACCCAACCCAAGTACCCAGCCGGAGTCACCTAGTGCAG | 57400 fluorescence intensity (a.u.)
13 | AGCATGGTGATTGAACGCAGCTTGGACAATGCAGAGGATGCGGAGTCACCTAGTGCAG | 40600 fluorescence intensity (a.u.)
14 | TTAAAATTGTTAAGAGAGTCAAATTGCATCGGCTTTAATACGGAGTCACCTAGTGCAG | 3190 fluorescence intensity (a.u.)
15 | ATGCTAAACATAAATTTGGATCATTCATCACTAGCGCTACCGGAGTCACCTAGTGCAG | 7330 fluorescence intensity (a.u.)
16 | AGTTAATTAATTAGTCCATCCAAGGAAGGAGTATATGATTCGGAGTCACCTAGTGCAG | 55800 fluorescence intensity (a.u.)
17 | ATTCGATTGATGACGTGGCGCCGCCAGCCGATGTGTGGACCGGAGTCACCTAGTGCAG | 24300 fluorescence intensity (a.u.)
18 | TCCGCAAAACTTCCCAATAATTAAACCGTGAAATTTCAGCCGGAGTCACCTAGTGCAG | 3840 fluorescence intensity (a.u.)
19 | GGCTATCGGTGGGTGGGTGGGGTGTACTACTCCCCTATAACGGAGTCACCTAGTGCAG | 3620 fluorescence intensity (a.u.)
20 | TTTATATTTAACTAAATTTATAGATAAATATAGTAATATTCGGAGTCACCTAGTGCAG | 5460 fluorescence intensity (a.u.)
21 | AATGCTTAATTTGACACACTTGCACTTGTAGGATGGGTATCGGAGTCACCTAGTGCAG | 10000 fluorescence intensity (a.u.)

Row | Sequence | binding signal
22 | GCTTAATTTGTCCTCCGATCCTCTCCTGGTCTCGGGTCTCCGGAGTCACCTAGTGCAG | 28500 fluorescence intensity (a.u.)
23 | ATTCGACCTGACGAGATTTGACTGGTACGCAGATAACGAACGGAGTCACCTAGTGCAG | 3720 fluorescence intensity (a.u.)
24 | GATAACTATTTAACAAATTTTAAGTAGAATTATGTGTAAACGGAGTCACCTAGTGCAG | 4310 fluorescence intensity (a.u.)
25 | CTGAACGATTGGCTGCTAAATTAAGGACGATTGATGATGCCGGAGTCACCTAGTGCAG | 22400 fluorescence intensity (a.u.)
26 | CATAACACTAATTGAGGTATCCATGGCATCCATCAGGTAGCGGAGTCACCTAGTGCAG | 45500 fluorescence intensity (a.u.)
27 | CAGTTAAATTTATTTTATGTCCTTGTTTCAAGTTTTGAGCCGGAGTCACCTAGTGCAG | 14300 fluorescence intensity (a.u.)
28 | GTGAAACGAGCGTAACTTAACTGGTTAGATTTCTTATGGTCGGAGTCACCTAGTGCAG | 3480 fluorescence intensity (a.u.)
29 | ACAATTGAATGATTGATTGCAGCTCAAGCTTCAATCCGCACGGAGTCACCTAGTGCAG | 63900 fluorescence intensity (a.u.)
30 | TACCGTTTTCACCCCTAATTGGGACAACCCAATTTGCAGTCGGAGTCACCTAGTGCAG | 6380 fluorescence intensity (a.u.)
31 | GTAATAATTATTATATTTTAGTGCGTACCAGCACTCCCATCGGAGTCACCTAGTGCAG | 13700 fluorescence intensity (a.u.)
32 | TATCTTAAAGTTAACTGTAAAATTTAAATCTAAACCTTAGCGGAGTCACCTAGTGCAG | 3310 fluorescence intensity (a.u.)
33 | ATCTGTTCATTTGATTTGAAGTCTAAATCCACTTTCCTCACGGAGTCACCTAGTGCAG | 5580 fluorescence intensity (a.u.)
34 | ATGATTTGCACCGAGAAAACGAACGATATGCTACTCTCTACGGAGTCACCTAGTGCAG | 10300 fluorescence intensity (a.u.)
35 | ACCCCACTGGATTGATGAGGATTATGGATTAATACTGGAGCGGAGTCACCTAGTGCAG | 26900 fluorescence intensity (a.u.)
36 | AGTGTGATTGCCCTCATGGATTCAGCGGAGATGCCATAAACGGAGTCACCTAGTGCAG | 16600 fluorescence intensity (a.u.)
37 | TAGATTGGACCACTATTAAGGGAACACCGTCACATAGGTGCGGAGTCACCTAGTGCAG | 5850 fluorescence intensity (a.u.)
38 | TAAATTGAATGGTTTTGTAAGTTGAGGGACGTCATATATCCGGAGTCACCTAGTGCAG | 21500 fluorescence intensity (a.u.)
39 | TACCAATCCCACAAGTTAACCGGAAGTTATATGCATGCTGCGGAGTCACCTAGTGCAG | 3270 fluorescence intensity (a.u.)
40 | TTAATTAGGCTTAATAGATTCGTCTAGCAGTTTACATGCGCGGAGTCACCTAGTGCAG | 39500 fluorescence intensity (a.u.)
41 | TATAAATAGACGATGAGGTCGCCCCTTTCCTCCATACACACGGAGTCACCTAGTGCAG | 6330 fluorescence intensity (a.u.)
42 | CCAATTAATCATCAAGCTATCTTTGTGCAGGGGAAATCAACGGAGTCACCTAGTGCAG | 6200 fluorescence intensity (a.u.)
